Measurements reported in patent US10456379B2, “Imidazole-based antimicrobial agents” (priority 2014, dated 2019).

Experiments:
[1] = test system: Human keratinocytes (HaCaT cells); test: Human cytotoxicity assay in vitro (CellTiter-Glo), keratinocytes; type: cell-based
[2] = test system: Human hepatocytes (HepaRG cells); test: Human cytotoxicity assay in vitro (CellTiter-Glo), hepatocytes; type: cell-based; design: key: 4: inhibiting cell viability 50% or more at concentrations of 10 μM or less; 3: causing at least 80% inhibition of viability at 25 μM; showing toxicity at 25 μM, but causing less than 20% inhibition of viability; 1: not causing a loss of viability at concentrations between 25 and 50 μM; without signs of cell viability loss at concentrations of 50 μM or higher
[3] = test system: Escherichia coli TolC mutant strain ΔtolC; type: cell-based
[4] = test system: Streptococcus pneumoniae (Chester, ATCC49619); test: Broth microdilution MIC assay, Streptococcus pneumoniae; type: cell-based; details: MIC class score, MIC100, broth microdilution
[5] = test system: Mycobacterium smegmatis (mc(2)155); test: Broth microdilution MIC assay, Mycobacterium smegmatis
[6] = test system: Staphylococcus aureus MSSA (Newman); test: Broth microdilution MIC assay, Staphylococcus aureus MSSA (Newman); type: cell-based; details: MIC class score, MIC100, broth microdilution, Newman strain

Row | SMILES | cytotoxicity, cell line K (keratinocytes), class [1] | cytotoxicity, cell line H (hepatocytes), class [2] | Antibacterial activity, EC Δ (Escherichia coli ΔtoIC), MIC class [3] | Antibacterial activity Streptococcus pneumoniae [4] | Antibacterial activity, MS (Mycobacterium smegmatis), MIC class [5] | Antibacterial activity Staphylococcus aureus (MSSA) [6]
1 | Cc1[nH]c(-c2ccc(-c3ccccc3F)s2)nc1-c1ccccc1 [compound 15] | 1 (causing less than 50% inhibition of cell viability at 50 μM) | 1 (not causing a loss of viability at concentrations between 25 and 50 μM) | 1 (MIC100 of 20-50 μg/ml or an MIC50 of <10 μg/ml) | – | – | –
2 | Cc1[nH]c(-c2ccc(-c3ccccc3C(F)(F)F)o2)nc1-c1ccccc1 [compound 17] | 3 (causing more than 50% inhibition of cell viability at 10 μM) | 3 | 1 (MIC100 of 20-50 μg/ml or an MIC50 of <10 μg/ml) | – | – | –
3 | Cc1[nH]c(-c2ccc(-c3ccccc3OC(F)(F)F)o2)nc1-c1ccccc1 [compound 18] | 2 (causing >50% inhibition of cell viability at 25 μM) | 2 | 1 (MIC100 of 20-50 μg/ml or an MIC50 of <10 μg/ml) | – | – | –
4 | Cc1nc(-c2ccc(-c3ccc(Cl)c(OC(F)(F)F)c3)o2)[nH]c1-c1ccccc1 [compound 41] | 2 (causing >50% inhibition of cell viability at 25 μM) | 2 | – | 4 (MIC of 1 μg/ml or less for preventing streptococcal growth 100% (MIC100)) | 1 (MIC100 of 20-50 μg/ml or an MIC50 of <10 μg/ml) | –
5 | Cc1[nH]c(-c2ccc(-c3ccc(Cl)c(C(F)(F)F)c3)o2)nc1-c1ccc(F)cc1 [compound 42] | 3 (causing more than 50% inhibition of cell viability at 10 μM) | 1 (not causing a loss of viability at concentrations between 25 and 50 μM) | – | – | 1 (MIC100 of 20-50 μg/ml or an MIC50 of <10 μg/ml) | 4 (MIC of 1 μg/ml to 3 μg/ml for preventing staphylococcal growth 100% (MIC100))
6 | Cc1nc(-c2ccc(-c3ccc(Cl)c(OC(F)(F)F)c3)o2)[nH]c1-c1ccc(Cl)cc1 [compound 44] | – | 2 | – | – | 1 (MIC100 of 20-50 μg/ml or an MIC50 of <10 μg/ml) | 4 (MIC of 1 μg/ml to 3 μg/ml for preventing staphylococcal growth 100% (MIC100))
7 | Cc1[nH]c(-c2ccc(-c3cccc(F)c3C)o2)nc1-c1ccccc1 [compound 60] | 2 (causing >50% inhibition of cell viability at 25 μM) | 3 | 1 (MIC100 of 20-50 μg/ml or an MIC50 of <10 μg/ml) | – | – | –
8 | FC(F)(F)Oc1ccccc1-c1ccc(-c2nc(Cl)c(-c3ccccc3)[nH]2)o1 [compound 64] | 3 (causing more than 50% inhibition of cell viability at 10 μM) | 3 | – | 4 (MIC of 1 μg/ml or less for preventing streptococcal growth 100% (MIC100)) | 1 (MIC100 of 20-50 μg/ml or an MIC50 of <10 μg/ml) | –
9 | Cc1ccccc1-c1cnc(-c2ccc(-c3ccccc3C(F)(F)F)o2)[nH]1 [compound 69] | 1 (causing less than 50% inhibition of cell viability at 50 μM) | 2 | 1 (MIC100 of 20-50 μg/ml or an MIC50 of <10 μg/ml) | 4 (MIC of 1 μg/ml or less for preventing streptococcal growth 100% (MIC100)) | – | –
